Experimental data taken from PubChem BioAssay AID686978 (National Center for Advancing Translational Sciences (NCATS), 2013).
The whole screen tested about 420,000 compounds, of which about 64,000 (15%) were called active. The shares of active, inactive and inconclusive entries below differ from those in the screen. The call rests on the fitted dose curve; in most records, active means well fitted inhibition curve with a large enough effect; inconclusive means small, poorly fitted or top-dose-only effect; inactive means flat fitted curve, though single readings scatter. Potencies of inconclusive entries are left out as doubtful fits.

experiment: qHTS for Inhibitors of human tyrosyl-DNA phosphodiesterase 1 (TDP1): qHTS in cells in absence of CPT; settings: DT40 Tdp1-/- hTDP1 cells, no CPT, ATP luminescence, 48 h; activity change, negative = growth inhibition: at 46.2 µM (top of the series) unless noted; further: nearly all actives have a fitted effect of over 55% in size
Outline: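 Cells were dispensed at 400 per well, compounds added by pin tool, plates incubated ≥48 hr at 37 °C, then CellTiter-Glo added for 30 min at room temperature before luminescence reading. Line: DT40 Tdp1-/- complemented with hTDP1; camptothecin omitted.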
On the % scale 0 is the no-effect control and ±100 the full control effect; potency means the concentration at half of the fitted maximal effect; tags describe the fitted curve by direction and shape.

Structure (SMILES)	Potency	activity change, negative = growth inhibition
CSc1nc(N)nc(SCC(=O)C23CC4CC(CC(C4)C2)C3)c1C#N	active: 18.4 µM	–
CCc1ccc(NC(=O)CN2C(=O)C3CCCN3c3ccc(S(=O)(=O)N(CC)CC)cc32)cc1 (stereo not given)	inconclusive [inhibitor, single point]	–
COc1ccc(CCNc2ncnc3onc(-c4ccc(Cl)cc4)c23)c(OC)c1	active: 14.6 µM	–
CN(C)S(=O)(=O)c1ccc(C(=O)NNC(=O)C2COc3ccccc3O2)cc1 (stereo not given)	–	inactive: 24.5%
CSc1ccccc1NC(=O)CN(Cc1ccc(Cl)cc1)S(C)(=O)=O	–	inactive: -22.8%
CC1CCCC(NC(=O)COC(=O)COc2cccc(F)c2)C1C (stereo not given)	–	inactive: -20.5%
Cc1ccc(-n2c(Cc3ccccc3)nnc2SCC(=O)NNC(=O)Cc2ccccc2)cc1	–	inactive: -12.8%
CCN(CC(=O)NCc1cccs1)C(=O)c1ccc(-c2cccc(C(F)(F)F)c2)o1	inconclusive [inhibitor, single point]	–
Cc1ccc(S(=O)(=O)N2CC3=C(C2)C2CC2(C)C3)cc1 (stereo not given)	inconclusive [inhibitor, partial curve]	–
CCc1ccc(/C=N/NC(=S)NCCc2ccccc2)cc1	active: 16.4 µM	–
OCC(O)C(O)C(O)C(O)C=Nc1ccc(/C=C/c2ccnc3ccccc23)cc1 (stereo not given)	inconclusive [inhibitor, partial curve]	–
O=C(OCc1ccccc1)N1CCC2CC1c1cc(-c3ccc(F)cc3)ccc12 (stereo not given)	inconclusive [inhibitor, single point]	–
COc1cc(/C=N/NC(=Nc2ccc(C)cc2)c2nc3ccccc3s2)ccc1O	active: 15.8 µM	–
O=C(c1cccc(NS(=O)(=O)c2ccccc2)c1)N1CCCCC1	–	inactive: -22.4%
CCC(C)(C)NC(=O)C(c1cccc(OC)c1OC)N(CC(C)C)C(=O)CCC(=O)Nc1cc(C)on1 (stereo not given)	inconclusive [inhibitor, single point]	–
Cc1ccc(N(CC(O)Cn2c3ccccc3c3ccccc32)S(=O)(=O)c2ccc(F)cc2)cc1 (stereo not given)	active: 20.6 µM	–
CC(C)C[C@H](NC(=O)c1nc[nH]c1C(=O)N1CCN(c2ccccc2)CC1)C(=O)OC(C)(C)C	inconclusive [inhibitor, partial curve]	–
Cc1ccc(NC(=O)CN(C)C(=O)c2ccc(Cl)c(S(=O)(=O)NCc3ccco3)c2)cc1	–	inactive: 11.9%
Cc1cc(S(=O)(=O)Nc2c(NC3CCCCC3)c3ccccc3oc2=O)ccc1F	inconclusive [inhibitor, single point]	–
O=C(COc1ccc(-c2ccccc2)cc1)N1CCN(C(=O)c2cccnc2)CC1	inconclusive [inhibitor, single point]	–
